Laboratory results published in the supplement of paper PMC4967469.
A lower IC50 marks a more sensitive line; a fit beyond the top or the lowest dose is shown as a bound at that dose. For AUC the same curve is integrated over the 256-fold range of doses and scaled to a fraction; the more sensitive the line, the further below 1. For part of these data: Where the top dose is marked as inferred, it is not printed in the source and was worked back from the curve model. For part of these data: Where an entry number is given, a second screen of the drug exists; the two often differ.

How the values were obtained:
Assay in all cases: Viability of human cancer cell lines after 72 h of drug (GDSC screen)
PD-0332991 = compound: CC(=O)c1c(C)c2cnc(Nc3ccc(N4CCNCC4)cn3)nc2n(C2CCCC2)c1=O [PD-0332991]
Experimental: (§1)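 Human cancer cell lines in 384-well plates, medium with 10% serum, drug for 72 h over a 256-fold dose range (nine 2-fold or five 4-fold steps up to the top dose). Adherent lines were fixed and stained with the nucleic acid dye Syto60, suspension lines read with resazurin; signal relative to control wells, capped at 0 and 100%. One two-parameter sigmoid per drug and line, fitted in a mixed model over all curves with the slope shared within a line.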

ZM-447439 = compound: COc1cc2c(Nc3ccc(NC(=O)c4ccccc4)cc3)ncnc2cc1OCCCN1CCOCC1 [ZM-447439]; details: top dose inferred
Experimental: as §1

AZD6244 = compound: Cn1cnc2c(F)c(Nc3ccc(Br)cc3Cl)c(C(=O)NOCCO)cc21 [AZD6244]; details: screen: GDSC drug entry 1062
Experimental: as §1

Cell Line | AUC (PD-0332991) | IC50 (PD-0332991) | AUC (ZM-447439) | IC50 (ZM-447439) | AUC (AZD6244) | IC50 (AZD6244)
OE21 (oesophagus, adherent, top dose 4 µM) | 0.674 | 0.924 µM | 0.863 | > 4 µM | 0.928 | > 4 µM
OE33 (oesophagus, adherent, top dose 4 µM) | 0.795 | 2.27 µM | 0.964 | > 4 µM | 0.951 | > 4 µM
ONS-76 (medulloblastoma, adherent, top dose 4 µM) | 0.57 | 0.394 µM | 0.87 | > 4 µM | 0.518 | 0.282 µM
OPM-2 (myeloma, suspension, top dose 4 µM) | 0.993 | > 4 µM | 0.994 | > 4 µM | 0.993 | > 4 µM
OS-RC-2 (kidney, adherent, top dose 4 µM) | 0.612 | 0.584 µM | 0.87 | > 4 µM | 0.745 | 1.77 µM
OSC-19 (head and neck, adherent, top dose 4 µM) | 0.718 | 1.07 µM | 0.845 | 3.07 µM | 0.961 | > 4 µM
OSC-20 (head and neck, adherent, top dose 2 µM) | 0.816 | 1.38 µM | 0.921 | > 2 µM | 0.899 | > 2 µM
OV-56 (ovary, adherent, top dose 4 µM) | 0.729 | 1.09 µM | 0.961 | > 4 µM | 0.878 | 3.78 µM
OV-90 (ovary, adherent, top dose 4 µM) | 0.937 | > 4 µM | 0.925 | > 4 µM | 0.936 | > 4 µM
OVCA420 (ovary, adherent, top dose 4 µM) | 0.949 | > 4 µM | 0.982 | > 4 µM | 0.82 | 3.39 µM
OVCAR-4 (ovary, adherent, top dose 4 µM) | 0.951 | > 4 µM | 0.903 | > 4 µM | 0.875 | > 4 µM
OVCAR-8 (ovary, adherent, top dose 4 µM) | 0.971 | > 4 µM | 0.926 | > 4 µM | 0.958 | > 4 µM
OVK-18 (ovary, adherent, top dose 4 µM) | 0.786 | 1.94 µM | 0.742 | 1.34 µM | 0.895 | > 4 µM
OVKATE (ovary, adherent, top dose 4 µM) | 0.931 | > 4 µM | 0.979 | > 4 µM | 0.978 | > 4 µM
OVMIU (ovary, adherent, top dose 4 µM) | 0.931 | > 4 µM | 0.904 | > 4 µM | 0.696 | 1.02 µM
P12-ICHIKAWA (T-cell lymphoblastic leukaemia, suspension, top dose 4 µM) | 0.84 | 1.89 µM | 0.724 | 0.906 µM | 0.988 | > 4 µM
P30-OHK (lymphoblastic leukaemia, suspension, top dose 4 µM) | 0.685 | 0.743 µM | 0.807 | 1.65 µM | 0.978 | > 4 µM
P31-FUJ (acute myeloid leukaemia, suspension, top dose 4 µM) | 0.996 | > 4 µM | 0.753 | 1.06 µM | 0.996 | > 4 µM
P32-ISH (Burkitt lymphoma, suspension, top dose 4 µM) | 0.969 | > 4 µM | 0.784 | 1.27 µM | 0.995 | > 4 µM
PA-1 (ovary, adherent, top dose 4 µM) | 0.867 | 2.38 µM | 0.931 | > 4 µM | 0.985 | > 4 µM
PA-TU-8902 (pancreas, adherent, top dose 4 µM) | 0.842 | 3.53 µM | 0.905 | > 4 µM | 0.593 | 0.47 µM
PANC-02-03 (pancreas, adherent, top dose 4 µM) | 0.812 | 2.68 µM | 0.935 | > 4 µM | 0.958 | > 4 µM

Cell Line | AUC (PD-0332991) | IC50 (PD-0332991) | AUC (ZM-447439) | IC50 (ZM-447439) | AUC (AZD6244) | IC50 (AZD6244)
PANC-03-27 (pancreas, adherent, top dose 4 µM) | 0.964 | > 4 µM | 0.895 | > 4 µM | 0.842 | 2.56 µM
PANC-04-03 (pancreas, adherent, top dose 4 µM) | 0.795 | 3.35 µM | 0.976 | > 4 µM | 0.685 | 1.13 µM
PANC-10-05 (pancreas, adherent, top dose 2 µM) | 0.919 | > 2 µM | 0.975 | > 2 µM | 0.867 | > 2 µM
PC-3 (prostate, adherent, top dose 2 µM) | 0.734 | 0.683 µM | 0.918 | > 2 µM | 0.921 | > 2 µM
PC-3 [JPC-3] (lung adenocarcinoma, adherent, top dose 4 µM) | 0.899 | > 4 µM | 0.972 | > 4 µM | 0.969 | > 4 µM
PC-14 (lung adenocarcinoma, adherent, top dose 4 µM) | 0.955 | > 4 µM | 0.952 | > 4 µM | 0.989 | > 4 µM
PCI-15A (head and neck, adherent, top dose 4 µM) | 0.845 | 2.93 µM | 0.988 | > 4 µM | 0.988 | > 4 µM
PCI-30 (head and neck, adherent, top dose 4 µM) | 0.759 | 1.7 µM | 0.921 | > 4 µM | 0.946 | > 4 µM
PE/CA-PJ15 (head and neck, adherent, top dose 4 µM) | 0.889 | > 4 µM | 0.962 | > 4 µM | 0.739 | 1.28 µM
PEO1 (ovary, adherent, top dose 4 µM) | 0.832 | 2.7 µM | 0.914 | > 4 µM | 0.987 | > 4 µM
PF-382 (T-cell lymphoblastic leukaemia, suspension, top dose 4 µM) | 0.884 | 3.4 µM | 0.874 | 3.06 µM | 0.991 | > 4 µM
PFSK-1 (medulloblastoma, adherent, top dose 4 µM) | 0.923 | > 4 µM | 0.879 | > 4 µM | 0.973 | > 4 µM
PSN1 (pancreas, adherent, top dose 4 µM) | 0.966 | > 4 µM | 0.892 | 3.4 µM | 0.559 | 0.352 µM
PWR-1E (prostate, adherent, top dose 4 µM) | 0.985 | > 4 µM | 0.941 | > 4 µM | 0.968 | > 4 µM
QGP-1 (pancreas, adherent, top dose 4 µM) | 0.948 | > 4 µM | 0.974 | > 4 µM | 0.977 | > 4 µM
QIMR-WIL (acute myeloid leukaemia, suspension, top dose 4 µM) | 0.917 | > 4 µM | 0.935 | > 4 µM | 0.985 | > 4 µM
RC-K8 (B-cell lymphoma, suspension, top dose 4 µM) | 0.993 | > 4 µM | 0.993 | > 4 µM | 0.992 | > 4 µM
RCC10RGB (kidney, adherent, top dose 4 µM) | 0.871 | > 4 µM | 0.969 | > 4 µM | 0.849 | > 4 µM
RCC-AB (kidney, adherent, top dose 4 µM) | 0.823 | 3.38 µM | 0.965 | > 4 µM | 0.956 | > 4 µM
RCC-FG2 (kidney, adherent, top dose 4 µM) | 0.782 | 2.16 µM | 0.926 | > 4 µM | 0.879 | > 4 µM
RCC-JF (kidney, adherent, top dose 4 µM) | 0.578 | 0.42 µM | 0.927 | > 4 µM | 0.563 | 0.379 µM
RCC-JW (kidney, adherent, top dose 4 µM) | 0.74 | 1.24 µM | 0.946 | > 4 µM | 0.961 | > 4 µM

Cell Line | AUC (PD-0332991) | IC50 (PD-0332991) | AUC (ZM-447439) | IC50 (ZM-447439) | AUC (AZD6244) | IC50 (AZD6244)
RCC-MF (kidney, adherent, top dose 4 µM) | 0.797 | 2.57 µM | 0.971 | > 4 µM | 0.854 | > 4 µM
RCH-ACV (B-cell leukaemia, suspension, top dose 4 µM) | 0.562 | 0.358 µM | 0.726 | 0.953 µM | 0.991 | > 4 µM
RCM-1 (large intestine, adherent, top dose 4 µM) | 0.918 | > 4 µM | 0.948 | > 4 µM | 0.589 | 0.461 µM
REH (B-cell leukaemia, suspension, top dose 4 µM) | 0.608 | 0.49 µM | 0.841 | 2.61 µM | 0.979 | > 4 µM
RERF-LC-MS (lung adenocarcinoma, adherent, top dose 4 µM) | 0.945 | > 4 µM | 0.968 | > 4 µM | 0.943 | > 4 µM
RERF-LC-Sq1 (lung squamous cell carcinoma, adherent, top dose 4 µM) | 0.786 | 2.69 µM | 0.889 | > 4 µM | 0.893 | > 4 µM
RF-48 (stomach, adherent, top dose 4 µM) | 0.929 | > 4 µM | 0.976 | > 4 µM | 0.969 | > 4 µM
RH-1 (rhabdomyosarcoma, adherent, top dose 4 µM) | 0.95 | > 4 µM | 0.824 | 1.88 µM | 0.992 | > 4 µM
RH-18 (rhabdomyosarcoma, adherent, top dose 4 µM) | 0.96 | > 4 µM | 0.973 | > 4 µM | 0.94 | > 4 µM
RKO (large intestine, adherent, top dose 4 µM) | 0.768 | 1.4 µM | 0.637 | 0.579 µM | 0.526 | 0.293 µM
RL (B-cell lymphoma, suspension, top dose 4 µM) | 0.913 | > 4 µM | 0.989 | > 4 µM | 0.99 | > 4 µM
RO82-W-1 (thyroid, adherent, top dose 4 µM) | 0.701 | 1.09 µM | 0.867 | > 4 µM | 0.846 | > 4 µM
ROS-50 (B-cell leukaemia, suspension, top dose 4 µM) | 0.936 | > 4 µM | 0.981 | > 4 µM | 0.959 | > 4 µM
RPMI-2650 (head and neck, adherent, top dose 4 µM) | 0.843 | 3.19 µM | 0.954 | > 4 µM | 0.95 | > 4 µM
RPMI-6666 (Hodgkin lymphoma, suspension, top dose 4 µM) | 0.954 | > 4 µM | 0.938 | > 4 µM | 0.943 | > 4 µM
RPMI-7951 (melanoma, adherent, top dose 4 µM) | 0.747 | 1.24 µM | 0.906 | > 4 µM | 0.866 | 3.38 µM
RPMI-8226 (myeloma, suspension, top dose 4 µM) | 0.674 | 0.709 µM | 0.843 | 2.31 µM | 0.971 | > 4 µM
RPMI-8402 (T-cell lymphoblastic leukaemia, suspension, top dose 4 µM) | 0.425 | 0.162 µM | 0.691 | 0.773 µM | 0.988 | > 4 µM
RPMI-8866 (chronic myeloid leukaemia, suspension, top dose 4 µM) | 0.685 | 0.79 µM | 0.791 | 1.65 µM | 0.925 | > 4 µM
RS4-11 (leukaemia, suspension, top dose 4 µM) | 0.562 | 0.364 µM | 0.643 | 0.598 µM | 0.989 | > 4 µM
